In the supplement of paper PMC4604168 (melanoma cell lines) one finds cell count data, which are given here for 15 compounds.

The list shows a part of the results. Many values rest on one well or one pass, so single values are uncertain.
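Further: cell number obtained by counting DAPI-stained nuclei in high-throughput microscope images with image analysis software, screen run in 1,536-well plates.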

This test concerns 501Mel. The test can be described thus: cell count relative to DMSO control; melanoma cells; higher = more viable cells. The following applies: library dose: low library concentration; 72 h.
With `Cc1nc(Nc2ncc(C(=O)Nc3c(C)cccc3Cl)s2)cc(N2CCN(CCO)CC2)n1` [dasatanib] + Cc1cc([N+](=O)[O-])ccc1NS(=O)(=O)c1cc(Cl)ccc1Cl [FH535] (first compound 0.004 µM, partner dose 1 µM), the cell count stood at 79.7%.

Compound `OCCn1cc(-c2cnc3nnn(Cc4ccc5ncccc5c4)c3n2)cn1` + CN(C)S(=O)(=O)c1ccc2c(c1)/C(=C/c1cc3c([nH]1)CCCC3)C(=O)N2 [SU6656] (first compound 1 µM, partner dose 0.4 µM) had a cell count of 95.5%.

As to `CN(C)S(=O)(=O)c1ccc2c(c1)/C(=C/c1cc3c([nH]1)CCCC3)C(=O)N2` + COc1ccc2c(c1)CCC1C2CCC2(C)C(NCCCCCCN3C(=O)C=CC3=O)CCC12 [U73122] (first compound 0.4 µM, partner dose 0.4 µM), the cell count turned out to be 81.8%.

Compound `CO[C@@H]1[C@H](N(C)C(=O)c2ccccc2)C[C@H]2O[C@]1(C)n1c3ccccc3c3c4c(c5c6ccccc6n2c5c31)C(=O)NC4` [Midostaurin] + Oc1nc(-c2ccc(C(F)(F)F)cc2)nc2c1CSCC2 [XAV939] (first compound 0.08 µM, partner dose 2 µM) came in with a cell count of 102%.

`CO[C@@H]1[C@H](N(C)C(=O)c2ccccc2)C[C@H]2O[C@]1(C)n1c3ccccc3c3c4c(c5c6ccccc6n2c5c31)C(=O)NC4` [Midostaurin] + C[C@@H]1CCN(C(=O)CC#N)C[C@@H]1N(C)c1ncnc2[nH]ccc12 [CP690550] (first compound 0.08 µM, partner dose 1 µM) yielded a cell count of 109%.

As for `C[C@]1(c2nc3c(C(N)=O)cccc3[nH]2)CCCN1` [Veliparib] + CC(C)CCN1c2nc(Nc3cc(F)c(O)c(F)c3)ncc2N(C)C(=O)C1C [BID1870] (first compound 1.4 µM, partner dose 0.2 µM), the cell count was determined as 83.4%.

Compound `CO[C@@H]1[C@H](N(C)C(=O)c2ccccc2)C[C@H]2O[C@]1(C)n1c3ccccc3c3c4c(c5c6ccccc6n2c5c31)C(=O)NC4` [Midostaurin] + CC(C)(C)c1cnc(CSc2cnc(NC(=O)C3CCNCC3)s2)o1 [SNS-032] (first compound 0.08 µM, partner dose 0.01 µM) yielded a cell count of 99.8%.

`NC(=O)Nc1cc(-c2cccc(F)c2)sc1C(=O)N[C@H]1CCCNC1` + COc1ccc(-c2ccc3c(N4CCOCC4)nc(N4C[C@@H](C)O[C@@H](C)C4)nc3n2)cc1CO [KU0063794] (first compound 0.02 µM, partner dose 0.02 µM) gave a cell count of 95.2%.

In turn, `C[C@]1(c2nc3c(C(N)=O)cccc3[nH]2)CCCN1` [Veliparib] + COc1cc2ncnc(Nc3ccc(Oc4ccccc4)cc3)c2cc1OC [SrcI1] (first compound 1.4 µM, partner dose 2 µM) displayed a cell count of 95.9%.

`OCCn1cc(-c2cnc3nnn(Cc4ccc5ncccc5c4)c3n2)cn1` + COc1ccc2c(c1)CCC1C2CCC2(C)C(NCCCCCCN3C(=O)C=CC3=O)CCC12 [U73122] (first compound 1 µM, partner dose 0.4 µM): the cell count was 89.6%.

With `NCC(=O)Nc1ccc(-n2nc(C(F)(F)F)cc2-c2ccc3c(ccc4ccccc43)c2)cc1` + CN(NC(=O)CC(=O)NN(C)C(=S)c1ccccc1)C(=S)c1ccccc1 [STA4783] (first compound 1 µM, partner dose 0.006 µM), the cell count was found to be 22.7%.

As for `Cc1nc(Nc2ncc(C(=O)Nc3c(C)cccc3Cl)s2)cc(N2CCN(CCO)CC2)n1` [dasatanib] + Oc1nc(-c2ccc(C(F)(F)F)cc2)nc2c1CSCC2 [XAV939] (first compound 0.004 µM, partner dose 2 µM), the cell count is 104%.

On to `OCCn1cc(-c2cnc3nnn(Cc4ccc5ncccc5c4)c3n2)cn1` + O=C(O)C(=O)Nc1sc2c(c1C(=O)O)CCNC2 [TCS401] (first compound 1 µM, partner dose 1.66667 µM), for which the cell count came out at 104%.

Take `C[C@]1(c2nc3c(C(N)=O)cccc3[nH]2)CCCN1` [Veliparib] + COc1ccc2c(c1)CCC1C2CCC2(C)C(NCCCCCCN3C(=O)C=CC3=O)CCC12 [U73122] (first compound 1.4 µM, partner dose 0.4 µM): the cell count was found to be 110%.

`NCC(=O)Nc1ccc(-n2nc(C(F)(F)F)cc2-c2ccc3c(ccc4ccccc43)c2)cc1` + O=C(Nc1ccccc1)c1cc([N+](=O)[O-])ccc1Cl [GW9662] (first compound 1 µM, partner dose 2 µM) registered a cell count of 33.1%.
